# Reference: article PMC10726135
# The list shows a part of the results. At the low end of the ranking, values are background and their order means little. The protein was read in a cell extract, so binding may be indirect.
# Target: T1, HNF4alpha2 (COS-7 nuclear extract) (UniProt P41235)
# T1 sequence: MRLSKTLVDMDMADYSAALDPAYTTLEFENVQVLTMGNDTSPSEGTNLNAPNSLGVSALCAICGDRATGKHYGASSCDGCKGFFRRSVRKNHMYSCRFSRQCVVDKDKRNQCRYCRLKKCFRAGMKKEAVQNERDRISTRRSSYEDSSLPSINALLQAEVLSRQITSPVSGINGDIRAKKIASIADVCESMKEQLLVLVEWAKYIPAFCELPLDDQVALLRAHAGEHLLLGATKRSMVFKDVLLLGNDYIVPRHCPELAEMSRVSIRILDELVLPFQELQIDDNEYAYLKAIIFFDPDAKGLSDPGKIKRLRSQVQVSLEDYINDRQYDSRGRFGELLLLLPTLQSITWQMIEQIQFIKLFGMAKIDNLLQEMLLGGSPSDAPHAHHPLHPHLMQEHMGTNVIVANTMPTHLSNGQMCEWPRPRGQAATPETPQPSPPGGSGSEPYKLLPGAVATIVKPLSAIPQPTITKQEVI
# Test: protein-binding microarray
# Conditions: COS-7 nuclear extract on double-stranded Agilent 4x180k PBM; binding buffer, salt, pH and temperature not given; high values mean tight binding; double strand, one strand shown; sequences stand for … in …GCCTAGGGAGATTAGAGTATCGGTCGA
row,Sequence,binding signal (log2 normalized intensity)
1,CTATAAAACAGGAAAAAGGGACAAAACTTC,-1.12
2,CGTGGTTGATCAAAGGTTGGACTGAGGACC,2.93
3,TACACAAAAGAGCTTTGAGTCTGGTGTTTC,0.62
4,AAATCTTAGAGAACACTCCTCCCCTTTTCT,2.07
5,GGAAATCCGAAATAAACTGAGGGGTGGGGA,-1.09
6,GTGTGTGTGTGTGTGTGTGTATGCCATGCT,2.33
7,CGCCACTGCATTCCAGCCTGGGGCAATAGA,-1.11
8,TTAGGACAACATGAGTAAACGAGCTATTTA,-1.13
9,ATGACACCCATCATGAGTAGGTTTACTAAA,-0.0613
10,GTCCAAGGACTTATCCTTGGGACATTCTCA,-1.22
11,CGCTGCCTCCCACCCCCACGGTGCGCTGCC,4.11
12,GGAAGGGATGGGGTGCAAACTCACCTGGAG,-1.25
13,TGGCCAAAGGGCACAAGAGGAATTGTTCAA,1.18
14,GAGATGAAAGGGGCCTCAGAGAAAGCCTGT,-1.21
15,TTTATTCACTTCTCAAAGGACAGATCAATG,1.91
16,GCTGGAACTTGCTTCCTTATCTATATTTGC,0.404
17,GCCAAACTCACAGCTTTTATGTCAAACCAC,-1.02
18,GCAAGGACGTGACCTTTATGGGAAAAAAAA,1.31
19,GATAGAGAAAGAAAAAGTACACACCTGCAA,-1.17
20,GCTACTGACCAGATGTTATTACTTAATGCT,-1.04
21,CTCCTTTTGTGAGAGGTCAATGTCCAGTTC,5.91
22,GTGAGCATGGCTGTGTTCCAATAAACTTCA,-0.568
23,GTAAACTGGCCAGAAGGTCAGAGATCAGGT,1.71
24,GATCAAGATACAGGTCAGACCCTGGAATTC,0.0675
25,TTGCTCTGCTTAAACCTTTCAAGGGATTCC,0.308

row,Sequence,binding signal (log2 normalized intensity)
1,CTGCCAAGACACAGAGAAAAAGAAGGTTGG,-1.18
2,TGCCACGCAATGCATAGCAGAAACATAGAA,-1.23
3,TCTCTCTGGCCTGTGGGGAGGTTATCTCGG,0.998
4,GCAAGAAGAAGGTGGACATCGTGGTTGCAA,-1.03
5,ACTCCTCTGTACAGCTCTTGTGCTCTGGAC,1.09
6,CCATCCACGGGTCCATGATTGCTGTCTACT,0.171
7,CCTCAAATACTCTGAGTAAACACAGACTTT,0.491
8,GTGTTCACAGGTGACCTCTGGCCACTGCAG,2.75
9,AAACCTTTGACCAATTGACCCTATCCACAT,2.98
10,TCAATACTCCACAAGACCACAAGGTGGCGA,-1.22
11,AATAAATCAAGATCACTGCCTTGGAGGCAC,-1.19
12,AGTTTGGTTTAAAGTTCAAGTCATAACTGG,2.32
13,AGCAGGTTGTACCTTGACCCAAGAAATAAA,3.91
14,CAGTGGGGACGCCTTCCCCTGCCACTTTCA,-1.08
15,AGGAGATTTGGCTTTGAATTCCACTTCTAC,-1.08
16,CTTTAGTCAGAGATTTCTTTACCATACCAG,-0.914
17,GAACTGTCGCAGAAAACACAGAGATCTGAT,-1.07
18,GCTTATCACTGGTGATGTGAACCTCGATCC,3.28
19,TCTAAGACCCATCCCTCAGGGTCCATATCC,2.84
20,TTATGCTTGCAGGTGTCAGGGGTCAATGTG,3.9
21,AATAACTGCTTTGTGGCATCAGGGTCCACA,2.59
22,AGTCCAAAGTCTGCAGGGTAGGCAGACAGG,1.1
23,GGACACAGAATGACTTTCAGAAAGTCCTTG,0.299
24,CATTTTAACCTTTGGCTGGTAGAGCAGGTT,2.6
25,CCGAGCCTCAGCCGGGAGAGGAGGCCCCCT,1.99

row,Sequence,binding signal (log2 normalized intensity)
1,AAGGACCTAGAGCTATTCCTTTGAAATGTT,0.04
2,TCTGCAAGGAAGGTGGGGGCCGCCCATTGG,-1.05
3,TCTGATCCTTTACAGAGATAAGAGGTGTCA,0.354
4,ACAGTACAAAGGTGAGCTTTTATCTTAAGT,2.25
5,AAATCCCTGGTCAAAGTCAACTCCTCCAAG,-1.12
6,CGTGGGCGTGAGTTTGCTGTCTTGACTTGG,0.995
7,GCTGGAGCTCCTGGGCCAAAGGGCATTCTG,3.88
8,GTTTTTAAGACAAACAAAAAACCCTAGAGA,-1.14
9,TCTCACTGCAACCTGAGTGCCAGAGCTGTG,-0.765
10,TCTCTGACGCTCAGTAAATCTGCACTTTAC,1.69
11,GTGCTAAAGGTCATATCCAAAATATTTGCA,2.36
12,AGCCTAGACAAGGCACCAAAGGAATCTACA,-1.19
13,TGCCCAGCAGAAAAGCTGTACCAATTATTG,-1.07
14,AAAGTGCATTGAAAGCACTAATTAACTGAG,-0.473
15,TTCATTATGGATAGGCACATATTGGATCTC,1.67
16,GGTTTTTCCATTGTACTCAGTATGTGCTGA,0.989
17,TAGATGTGCTATATAAAAACTAACCATACT,-1.2
18,GACCTTTGACTGCAGAAGATAAGAATCTCT,3.08
19,ATAAGGCAGTGGTTTGCAGTTGGAAAGCTG,-0.923
20,AATTTACATAACAGGTTTGTAACTTCTTGG,0.844
21,ATGTGTTTGCATGACTCATAAAGAACAGTT,1.28
22,TTGACCTTCTCTGTTAACCCTTTGCAGCCC,2.61
23,TTCATTTGCCCAGCTGTTCCGTGTTCCAGA,0.539
24,TGTCTCCAGAAATCAACCTTTGATCGTTTG,5.83
25,GGTCTACATGGAAGCCCAGATGACTGCCTT,-1.2

row,Sequence,binding signal (log2 normalized intensity)
1,GAAGCAATGGCCCTCAGCAAACCTTCTGGC,-1.21
2,TGTGTTTCCCTCCCTGGTATGTACTTTCTT,2.56
3,TTCACCTTTCGCCCTTTGTCCTATGACTCT,4.63
4,GTACAAAGTACAGAGATGGCACAGAGGAGG,-0.738
5,GCATTTAGAAATAGTTGACTTTTCTAACAA,-1.1
6,AAATCTTCCCTCCTGTGAACTCGCGCCCCA,1.66
7,CAGAACAAAGTCCAGTAAGGACAGTTCCAG,2.29
8,TAAAGCTAACCAGCTCTATCAGTCTGGGTC,-1.13
9,GTAACCTTTGCCCCCCAAGTTGAAGCCATC,5.16
10,GAGTGCCTCCATTTCACAAATGAGGGGACA,-0.526
11,TAAAAGGATCATGGAATTTAATTAGCTTCT,-1.14
12,CTGATGTGTTCGCCCCTAGGACACGCAGTT,0.984
13,AAGGCATGCTTGGCATCCCTGTGGTATTTG,0.27
14,AAGCTGAAAACAAATATTTGCCTAGGATTC,-0.803
15,GCAGAATCAAAGGTCAAAATATCTGATCGA,3.32
16,TCACCTAACCACATTCTTTCTGCATCGCAG,-1.13
17,GTAAGTTCAAGAAGACCTTTGCTCCACGTT,4.36
18,TGAAGATACTGGATAACCTTCCAGACAGAG,-1.01
19,GGACGTGGAATAGATCAGCTTTCAACACTC,-1.01
20,CCTCCCTCCCCCTTTCTCCGCTAAGTGGCT,2.62
21,CCTCTGCTGCGATCACCCAGGTCCAAGTCA,1.09
22,TTGGTTTATGTTCACCTCAGCACTGAGATA,0.424
23,GGTTCACATTTTTGTCATCTTCACTTTTGT,1.61
24,ATGATGGCCAGTTCAGCGCGTCTTAGCACT,-1.09
25,TACAGTAATTAGACAACATCGAAGACTTCA,-1.12

row,Sequence,binding signal (log2 normalized intensity)
1,AGGAAGTCGCTTGCCAGTATGCCACTGGTT,-1.1
2,AGAAGTATGACAACAAAGCATTATCTACAC,-1.11
3,TCTGATAAGGGTGTTTGTCCTTTGTTGCAA,1.92
4,AAATTTCCGTGTCGAAACTACAAACGGATA,-1.16
5,TGCCCTTGACTTTTTGTGGGGGCAGATGTT,1.86
6,AAGAAAGTTGAGGTGAATACACAGCTAGCA,-1.02
7,CTGGCTGCCCTGGGGTGACAGCTTTCTCCT,-0.776
8,TTGATAACCTACAACCTTCTGAGATGGAGC,-1.08
9,TTATGAAGGGGGGTGGGGAGGCAGGTGGCT,-1.09
10,GCATTTTTTGTAGATGCCTGCTTTCCACTC,0.968
11,ACCACTTTGAAATAGTGACCTCTGCTGGCC,2.65
12,ATCGCCACTGATTGAGGTTCACTCTATGTT,0.436
13,CGCCGCTTCCCCACCCCCTCTCCTCCCTCG,5.4
14,TTTTTTTTCTTAATTGCCCTTTGCCCTTTG,8.54
15,TTAACATTGCCGACCTCATGAGTAGAGAGC,0.0701
16,GGTATGAGGCCAGTTTTCCTAAGGGGCTTT,-1.08
17,GAGATCTGAATGGAATGAAGATACTGGATA,-1.08
18,CTATGACCTTTCACCTTTTAGCTTGGCATG,4.41
19,TGCTCCACCCTTCTATCCCCTTATCTAAAT,2.45
20,GAGGTGACGGCTAAGAGAAATCCACACAGC,-1.2
21,AGGTCATTCATGTGCAGGTTGGAATATGTG,2.33
22,CGCTGGGGAAGAGTGTGACTGTGGTACTCC,0.366
23,AGTCTGCCTCTATGTGATCAGATGTGGACA,1.96
24,GACCAAGCAGCTGTTTGACCAAAGCTACTC,-1.09
25,TCCACACAGCACTGACCTTTGAGAGTCAAC,3.27

row,Sequence,binding signal (log2 normalized intensity)
1,CAATAGCAAAACCTGATGTTTGGACAGTGT,1.84
2,TTCTTGAGGCATTTATTACAGAGAGGGGGA,-1.15
3,CAGCTTTCTTTTCCAACCATTGACACTCCT,1.5
4,AAGCAAGACAATGCACTCATAACTAGGGTT,-0.968
5,CCCGGACCCTGACTCTGCAGCCGAACCGGC,-1.13
6,GCTGGAATTTGAACCCAAGCAATCTGGCTG,2.14
7,TAGAAAACAAGTTAGACAGTGCCTATGTTG,-0.264
8,TATATGAGGAAGGGTGTGTAAAACAGGTGA,1.24
9,CTGGATGGTGTTTGATCTGATGTACCCAGC,2.34
10,CAATTGCCCTACAGCTCCTGAGTCCACATG,0.851
11,ACCGTAAATGCATTATTGCACTGTGCTTTG,1.49
12,CAGCTGTCGTGTGAATAGCACTGACCAGCT,-1.21
13,TTACGGGGTGGTTTATCTGCCTGTGGATAG,1.37
14,AATACTGTGCAAATCCCCGCCTTTGACACA,2.22
15,GGAAGGATAAGAGCAAGAAACAGCAAATGC,-1.18
16,TTTCCCCGTCCCAAGCTGAGGTCTGGTGTC,2.59
17,ATAGGAAAAGGGAGTTTTCTGCTCTCAACT,-1.17
18,GGCCTCTTCCCCAAACTAGGAGAGTGGACT,2.56
19,CAGGGTCAGAGGTCGCGAGGGAGAGCCCTA,2.5
20,AGGACTTATCCTTGGGACATTCTCACATTA,-0.165
